Measurements from paper PMC12136788.
The list shows a part of the results.

B1: chr13:45969211:45969312:-|CDS|ENSG00000123200|unk|total|mutant (ssRNA)
RNA: GGGAGUUCUACAGUCCGACGAUCGUCCCUGACCGUACAGAGGUGACAGAAGCAGAGCAUACUGCCACCGCCACGACUCCUGGCCGUACCCCUUCUCCUCUAUCUUCUCUUCUUCCUCCUCCACCGCCUGUGGCUACUGCCACUCAACAGAGGAUUGAGCAUCA
B2: ENSG00000198589:be:win_5151|CDS|ENSG00000198589|bound_else_gene|NA|bound_elsewhere_windowed (ssRNA)
RNA: GGGAGUUCUACAGUCCGACGAUCGCAGUUCAGAUCUUUUGACAGAAGUGUCAUUGUUGCAGCAAAAAAGUCAGCAGUCUCACCUUCCACCUUUAAUACAAGCAUACCUACCAAUGCUGUCAGUGUGGUUUCCUCAGUAGAUUCCAACAGAGGAUUGAGCAUCA
B3: chr5:10236899:10237040:-|CDS|ENSG00000150756|control|control|control (ssRNA)
RNA: GGGAGUUCUACAGUCCGACGAUCUAUUAUUACUUGUUCACAAAACCAUCCUCCCAGACACUUUCAUUUCACUGCUGCUGUGCUAGCCCACUGAUGGAGAGAUGCAGUGGAUUUUCAGCAAUGUUUUGUUCGACCUCCCCGGGGCAACAGAGGAUUGAGCAUCA
B4: chr3:45823315:45826332:-|three_prime_utr|ENSG00000163818|control|control|control (ssRNA)
RNA: GGGAGUUCUACAGUCCGACGAUCUCAGGCAUGUAUUUUGAAAAGCAUUUUGUCAUAUCCCCUCUCCUUAUUUUUCUAAUAUUUAGACUUUGAAUAUUUAGAACUAGAGUUCCUAUUUUCAGCUAGUUGAAAACAGAGAAAACCCAACAGAGGAUUGAGCAUCA
B5: ENSG00000248905:stop:overlap|stop_codon|ENSG00000248905|stop_codon|NA|stop_codon (ssRNA)
RNA: GGGAGUUCUACAGUCCGACGAUCAAGACACAGAAGAAAAAGUGGGACUGAAGUACACUGAAGCAGGUAAUGUGAAAGGAAGCUAGGGACCCGGGAAUGAAUCUCUUCCUGCAAUGGCUUUUAGUUCUAGCUUAGUUGACUCUCCAACAGAGGAUUGAGCAUCA
B6: chrX:51895182:51895295:+|CDS|ENSG00000179222|unk|total|mutant (ssRNA)
RNA: GGGAGUUCUACAGUCCGACGAUCAGUUCACAGCCCCCAACUGCCAAUGAGAUGGCUGACAUUCAGGUUUCAGCAGCUGCCGCCCGGCCUAAGUCAGCCUUUAAAGUCCAGAAUGCCACCACAAAAGGCCCAAAUGGUGUCUAUCAACAGAGGAUUGAGCAUCA
B7: chr10:49131153:49131612:-|three_prime_utr|ENSG00000172538|control|control|control (ssRNA)
RNA: GGGAGUUCUACAGUCCGACGAUCCUGCCCUCACCUCCAGGGCCUGGGACUGCUCCUUCCCCAGCCAGCAGUAUCAGAGCCACUAGGGCAGGGAGAGAGGACCAGGGUCAGGGGGAAGGAAAGGCAUGGAGUGUAGAGCAAGGACAACAGAGGAUUGAGCAUCA
B8: chr8:76983344:76983445:-|CDS|ENSG00000164751|msi1|FALSE|unique (ssRNA)
RNA: GGGAGUUCUACAGUCCGACGAUCAGCCACCAGUGGCAAAGAAUGCGCUCUAUGUGGAGAGUGGCCCACCAUGCCUCACACCAUAGGAUGUGAGCAUAUUUUCUGUUAUUUCUGUGCUAAGAGUAGUUUCUUAUUUGACGUGUACAACAGAGGAUUGAGCAUCA
B9: chr2:27376893:27376994:+|3pUTR|ENSG00000115234|msi1|total|mutant (ssRNA)
RNA: GGGAGUUCUACAGUCCGACGAUCGGGCUGGCUGCACAGAGGAUUGCCCCUUCUCUUUUCAGAGCUGGCCCUCGAUGCCAAAUCCGCAUUCCGUAUUUUGCACAAAGUCUAAGGGACCAUGGCUGCCUGCCUUGGGGAGGAACCCAACAGAGGAUUGAGCAUCA
B10: chr10:91841327:91841437:+|CDS|ENSG00000107854|unk|FALSE|unique (ssRNA)
RNA: GGGAGUUCUACAGUCCGACGAUCUUCUUAUGGACAUUAUGAAGUUGCAGAACUUCUUGUUAAACAUGGAGCAGUAGUUAAUGUAGCUGAUUUAUGGAAAUUUACACCUUUACAUGAAGCAGCAGCAAAAGGAAAAUAUGAAAUCAACAGAGGAUUGAGCAUCA
B11: chr21:44497892:44499936:-|three_prime_utr|ENSG00000175894|control|control|control (ssRNA)
RNA: GGGAGUUCUACAGUCCGACGAUCGUGGGGCGGGACCCCAGCACCUCCCCCAACUGACCCUGGACGUCCAGGUGGGCCCAGCCUAGGGCAUCCCGGGCCUGGGCAUCAGGCAGGGUGCAGGUGGGGCCAUCUGCGGCCCUGGUUCAACAGAGGAUUGAGCAUCA
B12: chr4:87458373:87458474:+|3pUTR|ENSG00000170502|unk|FALSE|unique (ssRNA)
RNA: GGGAGUUCUACAGUCCGACGAUCUCCCUCCCGCUCCCCAUCUUCUGAGGCCUGAAGGAUGUUCCUGCCACAUCAAACUCCUUUAGGCAGAGUACCGCCACUGGAUGUAUAGUUUAAUGUUUCAUCUGAUUUUUCUUUAAAUUACAACAGAGGAUUGAGCAUCA
B13: chr9:122240152:122240253:-|3pUTR|ENSG00000119446|msi1|FALSE|unique (ssRNA)
RNA: GGGAGUUCUACAGUCCGACGAUCCUUCUUGGAGUAUAGAAUUCACCAUUUUAUCCGUAAGUCUUCAAAGGAUUAUGGUGGACUAGAACUUACAUAGUGCAAAAUAGUCUUCUAUUUUUAAUAGGAACUUAGAAAAAACUUAGACAACAGAGGAUUGAGCAUCA
B14: chr9:37441208:37441377:-|CDS|ENSG00000168795|unk|FALSE|unique (ssRNA)
RNA: GGGAGUUCUACAGUCCGACGAUCAGGGUAGGUGAUAUCCAUAUUUUGGAAGUCACAAAUAACCUAGAGCAUAAGUCCACUUUUAGUAUUUCGAAUUUUCUUAACAAGAGCAGAGGAAAUAACUUUACUGCAAAUCAGAACAAUCAACAGAGGAUUGAGCAUCA
B15: ENSG00000198589:be:win_7101|CDS|ENSG00000198589|bound_else_gene|NA|bound_elsewhere_windowed (ssRNA)
RNA: GGGAGUUCUACAGUCCGACGAUCUCUUGGAGUGAUGGAUGAUGGGACAGUAGUGUCUGAUGUCGAACUUCCUCCUUGGGCCAAAACCUCAGAAGAAUUUGUUCACAUAAACAGAUUGGCCCUGGAGAGUGAAUUUGUUUCCUGCAACAGAGGAUUGAGCAUCA
B16: chr11:48137134:48137235:+|CDS|ENSG00000149177|msi1|total|mutant (ssRNA)
RNA: GGGAGUUCUACAGUCCGACGAUCCACGUACUCCUACUGCCUUCUUAUUGAGAAGGCUGGAAAUUCCAGCAACGCAACACAAGCCGUCACGGACAUUGGAAUUACUGACGCUACAGUCACUGAAUUAAUACCUGGCUCAUCAUACAACAGAGGAUUGAGCAUCA
B17: chr17:37686430:37687371:-|three_prime_utr|ENSG00000275410|control|control|control (ssRNA)
RNA: GGGAGUUCUACAGUCCGACGAUCUGCAAUUUCCCCUCUGUGUCCUCUCCCCUCUGCCCUGUAUAUAAUACUAAAGUGUCUAUUAGUUUUCUUUGUAAAGGUCAGAGUCAAAAUUUCAAAAGUGAUCUGUCCCCUCUCCCCUCACAACAGAGGAUUGAGCAUCA
B18: chr18:49591392:49591493:+|3pUTR|ENSG00000101670|msi1|total|mutant (ssRNA)
RNA: GGGAGUUCUACAGUCCGACGAUCCCUUCUCCGUUAUUAUGUGCCACCUCCCCUAUGAGUGACGUGUUUGAUCACCCGCAGAACCGCAAGCAGAGUAUCAUUCAUGCUGGGGCCAGAAUGAUGGCCGGUUGCCAGAUAUAACUGCAACAGAGGAUUGAGCAUCA
B19: chr7:6162096:6162197:-|3pUTR|ENSG00000008256|msi1|total|mutant (ssRNA)
RNA: GGGAGUUCUACAGUCCGACGAUCGUCACAGAACAUUUUGGGGCAGUUUAAUGUGGUACCAAACUGAAAACCGGAGCUAUUUACCGAUGGAGCAGCACUCCGUGCUUCACCGAAAGCAAUGCCUAUUUUUAAAGUUACAAACGCCAACAGAGGAUUGAGCAUCA
B20: chr4:86814747:86814848:+|3pUTR|ENSG00000163629|unk|total|mutant (ssRNA)
RNA: GGGAGUUCUACAGUCCGACGAUCUACUUUAACCUAUGAUAAUUAUUUACAAAAUUUUAACACUAACCAAACAAUGCAGAUCUCCGGGAUGAUUAAAGGCAGCAUUUGAUGACCGCAGACAUUGUUACAAGGACAUGGUGAGUCCAACAGAGGAUUGAGCAUCA
B21: ENSG00000119777:stop:overlap|stop_codon|ENSG00000119777|stop_codon|NA|stop_codon (ssRNA)
RNA: GGGAGUUCUACAGUCCGACGAUCGCCUACAGGACAUUACAGUGGCUUUCUUGGACUGGGCACUUGCCCUGAUAUCCCAGCAGUAGGCCCUGCCUUCCUGGCCACUGAUUUCUGCAUGGGUAGACCAUCCAAGACUGCAGCGGGCAACAGAGGAUUGAGCAUCA
B22: chr8:19954154:19954263:+|CDS|ENSG00000175445|unk|FALSE|unique (ssRNA)
RNA: GGGAGUUCUACAGUCCGACGAUCACCUAACUUUGAGUAUGCAGAAGCCCCGAGUCGUCUUUCUCCUGAUGAUGCAGAUUUUGUAGACGUCUUACACACAUUCACCAGAGGGUCCCCUGGUCGAAGCAUUGGAAUCCAGAAACCCAACAGAGGAUUGAGCAUCA

Target: MSI1 full-length (mouse, UniProt Q61474 1-362)
Assay: nsRBNS (natural sequence RNA bind-n-seq); RBNS binding buffer (assumed for nsRBNS): 25 mM Tris pH 7.5, 150 mM KCl, 3 mM MgCl2, 0.01% Triton X-100, 500 ug/ml BSA, 20 U/ml SUPERase-In, 4 C; UNK is unkempt and MSI1 is Musashi-1; names of the RNAs are library labels; protein concentration not given here; high values mean tight binding

Sequence of UniProt Q61474 (Q61474 whole entry): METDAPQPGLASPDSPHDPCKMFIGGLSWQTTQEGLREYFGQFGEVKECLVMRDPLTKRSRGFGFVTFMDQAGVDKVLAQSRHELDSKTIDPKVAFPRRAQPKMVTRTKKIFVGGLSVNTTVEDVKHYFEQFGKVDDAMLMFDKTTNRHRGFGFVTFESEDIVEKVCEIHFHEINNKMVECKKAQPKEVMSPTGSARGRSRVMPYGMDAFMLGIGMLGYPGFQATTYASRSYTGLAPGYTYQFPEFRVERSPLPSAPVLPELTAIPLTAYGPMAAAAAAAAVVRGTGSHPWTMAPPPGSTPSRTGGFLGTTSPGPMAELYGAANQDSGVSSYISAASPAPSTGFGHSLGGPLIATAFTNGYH

In order of rising binding signal:
1. B21  0.348 enrichment R
2. B5  0.365 enrichment R
3. B11  0.368 enrichment R
4. B9  0.375 enrichment R
5. B16  0.383 enrichment R
6. B15  0.387 enrichment R
7. B18  0.488 enrichment R
8. B2  0.49 enrichment R
9. B6  0.527 enrichment R
10. B19  0.623 enrichment R
11. B22  0.775 enrichment R
12. B8  0.859 enrichment R
13. B3  0.919 enrichment R
14. B17  0.979 enrichment R
15. B1  0.983 enrichment R
16. B14  1.13 enrichment R
17. B7  1.65 enrichment R
18. B10  2.34 enrichment R
19. B12  2.89 enrichment R
20. B20  5.19 enrichment R
21. B4  5.79 enrichment R
22. B13  20.5 enrichment R
